Source: PubChem BioAssay AID602233 (National Center for Advancing Translational Sciences (NCATS), 2012)
The whole screen tested about 380,000 compounds, of which about 170 (0.045%) were called active. The shares of active, inactive and inconclusive entries below differ from those in the screen. Calls come from the whole dose curve; as a rule, active = well fitted inhibition curve with a large enough effect; inconclusive = small, poorly fitted or top-dose-only effect; inactive = no such curve, though single readings can be large or run the other way. No potency is given beside an inconclusive call; the fits are too rough.

target: Phosphoglycerate kinase, glycosomal (Trypanosoma brucei brucei) (UniProt P07378); test: qHTS Assay to Find Inhibitors of Phosphoglycerate Kinase; settings: PGK/GAPDH coupled, Kinase-Glo luminescence, 60 min; series mostly up to 57.5 µM; note: nearly all actives have a fitted effect of over 60% in size
Procedure, shortened: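 Luminescent ATP detection (Kinase-Glo Plus) follows a 60-minute room-temperature incubation, with wells lacking PGK as controls. Buffer: 100 mM TEA (pH 7.6), 5 mM MgCl2, 0.01% Tween-20. Coupling enzyme GAPDH (100 nM final) supplies unstable 1,3-BPG in-well.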
Potency is the fitted concentration of half-maximal effect; tags give direction and shape of the fitted curve.

Structure (SMILES) | Potency
CC(C)(C)OC(=O)C[C@@H]1C/C=C\C[C@H](CC(=O)NCCO)C(=O)N2CCC[C@H]2COC1=O | inconclusive [inhibitor, partial curve, poor fit]
O=C1NC(=S)NC1=Cc1ccco1 | inconclusive [inhibitor, single point]
CCN(CC(=O)Nc1ccccc1C(F)(F)F)C(=O)CCOc1ccccc1C | inactive
O=C(NCc1ccccn1)C1CCN(S(=O)(=O)c2cnc[nH]2)CC1 | inconclusive [inhibitor, partial curve, poor fit]
CCc1ccc(Nc2nnc(SCC(=O)NC(=O)CN3CCCC3=O)s2)cc1 | inconclusive [inhibitor, partial curve, poor fit]
O=C1CSC(=S)N1/N=C/c1ccc(O)c([N+](=O)[O-])c1 | inconclusive [inhibitor, single point]
O=C(COC(=O)c1cccs1)NCc1ccco1 | inconclusive [inhibitor, single point]
Cc1cc(C)c(S(=O)(=O)c2cccc(Cl)c2)c(Cl)n1 | inactive
COc1ccc(C=Cc2ccc3ccccc3n2)c(OC)c1 | inconclusive [inhibitor, partial curve]
CCc1nnc2c3ccccc3nc(N3CCN(c4ccc(C)cc4C)CC3)n12 | inactive
COc1ccc(NC(=S)N2CCN(C(=O)c3ccco3)CC2)cc1 | inconclusive [inhibitor, partial curve, poor fit]
O=C(CSc1nc2nn(-c3ccccc3)c(=O)c-2c2n1CCCCC2)c1ccc(O)c(O)c1 | inconclusive [inhibitor, partial curve, poor fit]
N/C(=N/OC(=O)c1ccccc1F)c1nonc1N | inconclusive [inhibitor, partial curve, poor fit]
O=C(CSc1n[nH]c(=O)[nH]c1=O)Nc1ccc2c(c1)C(=O)c1ccccc1C2=O | inconclusive [inhibitor, full curve, poor fit]
O=C(NCc1nc2ccccc2[nH]1)c1ccc(S(=O)(=O)N2CCOCC2)cc1 | active: 22.4 µM
O=C(COC(=O)c1ccc([N+](=O)[O-])s1)c1ccc[nH]1 | inactive
Fc1cccc(Cl)c1/C=C/c1cnc2ccccc2n1 | inconclusive [inhibitor, partial curve, poor fit]
O=c1c(OC2OC(CO)C(O)C(O)C2OC2OC(CO)C(O)C(O)C2O)c(-c2ccc(O)cc2)oc2cc(O)cc(O)c12 (stereo unspecified) | inconclusive [inhibitor, partial curve, poor fit]
O=C(O)C1CC(=O)N(c2ccc3c(c2)OCCO3)C1 (stereo unspecified) | inconclusive [inhibitor, partial curve, poor fit]
CCN1CCN(Cc2ccc(NC(=O)c3ccc(C)c(NC(=O)c4cc(-c5ccc(Br)cc5)n[nH]4)c3)cc2C(F)(F)F)CC1 | inactive
Cc1c(C(=O)OC(C)C)sc(NC(=O)C2c3ccccc3Oc3ccccc32)c1C(=O)OC(C)C | inactive
O=C(CSc1nnc(-c2ccncc2)n1-c1ccccc1)Nc1ccc(F)cc1 | inactive

Structure (SMILES) | Potency
Cc1cc(C)cc(NC(=O)CSCc2nc3c(nnn3Cc3ccc(F)cc3)c(=O)[nH]2)c1 | inconclusive [inhibitor, partial curve, poor fit]
CCN(c1ccccc1)S(=O)(=O)c1cc(C(=O)OCC(=O)c2c(N)n(C)c(=O)n(C)c2=O)ccc1C | inconclusive [inhibitor, partial curve, poor fit]
Cc1ccsc1C(=O)Nc1ccc2c(c1)OCCO2 | inconclusive [inhibitor, partial curve, poor fit]
NNc1ccc([N+](=O)[O-])c2[nH][nH]c(=O)c12 | inconclusive [inhibitor, partial curve, poor fit]
[O-][n+]1c2ccccc2[n+]([O-])c2cc(O)ccc21 | inconclusive [inhibitor, partial curve]
COc1ccc(C(=O)c2ccccc2)c(O)c1 | inactive
COc1ccc(-c2noc(N3CCC(C(=O)NC(C)c4ccccc4)CC3)n2)cc1 (stereo unspecified) | inactive
CCOC(=O)CC(=O)CSc1nc2nc(C)cc(C)n2n1 | inconclusive [inhibitor, single point]
COc1ccc(C(=O)COC(=O)c2ccccc2O)c(OC)c1 | inactive
CCOc1cc(C2C(C(=O)OC)=C(C)NC3=C2C(=O)c2ccccc23)cc(Cl)c1O (stereo unspecified) | inconclusive [inhibitor, partial curve, poor fit]
COC(=O)CCSc1nc2sc3c(c2c(=O)n1Cc1ccccc1)CCC(C(C)(C)C)C3 (stereo unspecified) | inconclusive [inhibitor, partial curve, poor fit]
O=C(CSc1ccc(-c2ccco2)nn1)Nc1ccccc1 | inactive
CN(C)c1ccc(NC(=O)COC(=O)c2ccc3c(c2)OCO3)cc1 | inactive
COc1cc2oc(=O)cc(-c3ccc(-c4ccc(O)cc4)cc3)c2c(OC)c1OC | inactive
COc1cccc(N=Nc2ccc3ccccc3c2O)c1 | inconclusive [inhibitor, partial curve, poor fit]
O=C(NCCN1CCOCC1)c1ccc2c(c1)N(Cc1cccc(Cl)c1)C(=O)c1ccccc1S2(=O)=O | inconclusive [inhibitor, single point]
C=C(C)C(=O)Nc1cccc(C2=NOC3(C2)C[C@@H](C(N)=O)N(C(=O)c2ccc(OC)cc2)C3)c1 (stereo partly specified) | active: 2 µM
O=C(CSc1nc2ccccc2c(=O)[nH]1)c1ccc(O)c(O)c1 | inconclusive [inhibitor, partial curve]
c1ccc2nc(-c3nc4ccccc4[nH]3)ccc2c1 | inconclusive [inhibitor, single point]
CN(C)c1ccc(/C=C/c2ccc3c4ccccc4ccc3[n+]2-c2ccccc2)cc1 | inconclusive [inhibitor, partial curve, poor fit]
CC(C)c1nc(SCC(=O)N2CCCCCC2)c2c(=O)n(C)c(=O)n(C)c2n1 | inconclusive [inhibitor, partial curve, poor fit]
CCOC(=O)C1C(=O)C=C(c2ccc(C)cc2)CC1c1ccc([N+](=O)[O-])cc1 (stereo unspecified) | inactive

Structure (SMILES) | Potency
O=C(CN1CCN(S(=O)(=O)c2ccc(Cl)cc2)CC1)c1ccc(O)c(O)c1 | inconclusive [inhibitor, partial curve, poor fit]
Nc1nc(=S)c2ncn(C3OC(CO)C(O)C3O)c2[nH]1 (stereo unspecified) | inconclusive [inhibitor, partial curve]
COC(=O)c1sccc1NC(=O)Nc1ccc(OC)cc1 | inconclusive [inhibitor, partial curve]
CCN1C/C(=C/c2ccc(N3CCOCC3)cc2)C(=O)/C(=C/c2ccc(N3CCOCC3)cc2)C1 | inconclusive [inhibitor, partial curve, poor fit]
Cc1cc2nc3ccc(=[N+](C)C)cc-3sc2cc1N | inactive
COCCn1c(SCc2cccc([N+](=O)[O-])c2)nc2ccccc2c1=O | inactive
CC(C)[C@@H](C(=O)NCC1CCC(C(=O)O)CC1)n1nnc2ccccc2c1=O (stereo partly specified) | inconclusive [inhibitor, partial curve, poor fit]
O=C(NCCCN1CCOCC1)C(=O)N/N=C/c1c(Cl)cccc1Cl | inactive
CCOc1cc(CNC(=O)c2ccccc2NC(=O)c2nsc3ccccc23)ccc1OC | inconclusive [inhibitor, partial curve, poor fit]
O=C(Cn1ncc2c3ccccc3n(Cc3ccc(F)cc3)c2c1=O)N1CCN(c2ncccn2)CC1 | inactive
CCNC(=S)NS(=O)(=O)c1ccc(Cl)cc1 | inconclusive [inhibitor, single point]
O=c1cc2c(=O)oc3cc(O)c(O)oc3c2c(O)c1O | inconclusive [inhibitor, full curve, poor fit]
COCCN(C(=O)C1CC(=O)N(Cc2ccccc2)C1)c1nc(-c2ccc([N+](=O)[O-])cc2)cs1 (stereo unspecified) | inactive
O=C(CCCOc1ccc(Cl)cc1Cl)Nc1ccncc1 | inactive
COc1ccc(NC(=O)CC(C)=O)c(OC)c1 | inactive
Cc1c(C(=O)O)c(O)cc2c1C(=O)c1c(O)c([C@@H]3O[C@H](CO)[C@@H](O)[C@H](O)[C@H]3O)c(O)c(O)c1C2=O | inconclusive [inhibitor, partial curve, poor fit]
O=C(O)CCN1C(=O)/C(=C\c2cccc(OCC(=O)Nc3ccc(Cl)cc3)c2)SC1=S | inconclusive [inhibitor, single point]
NNc1nc2c(Cl)c(Cl)ccc2s1 | inconclusive [inhibitor, full curve]
c1coc(-c2nc(-c3ccco3)c(-c3ccco3)nc2-c2ccco2)c1 | inconclusive [inhibitor, partial curve, poor fit]
CCn1nc(NS(=O)(=O)c2ccccc2)c2cc3cccc(C)c3nc21 | inactive
Cc1ccc(N2C(=O)CCSC23C(=O)N(Cc2ccccc2)c2ccccc23)cc1 (stereo unspecified) | inactive
Cc1ccc(C=C2C(=O)c3ccccc3C2=O)o1 | inconclusive [inhibitor, full curve, poor fit]
